# Results published in PubChem BioAssay AID1347165 (National Center for Advancing Translational Sciences (NCATS), 2019).
# Out of some 220,000 compounds screened, about 5,700 (2.6%) were called active. Inconclusive means that the source gave no clear call. Such entries were picked first, then a sample of the others. Calls follow the shape of the dose curve; as a rule, active = well fitted inhibition curve with a large enough effect; inconclusive = small, poorly fitted or top-dose-only effect; inactive = no such curve, though single readings can be large or run the other way. Where the call is inconclusive, the potency comes from a doubtful curve fit.
# Molecular target: Lysine-specific demethylase 5B (Homo sapiens) (UniProt Q9UGL1)
# Assay: Primary screen for KDM5B Histone Demethylases FDH-coupled qHTS; also: nearly all actives have a fitted effect of over 70% in size; as to activity change, negative = inhibition: 0% is about no effect
# Conditions: FDH-coupled NADH fluorescence (FDH is formaldehyde dehydrogenase); activity change, negative = inhibition: at 57.7 µM (top of the series) unless noted
# In short: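 Coupled FDH/NAD⁺ fluorescence readout. KDM5BΔAP 200 nM final; compound titration, 10 min RT preincubation; substrate mix 12.5 µM H3K4me3, 25 µM 2-OG, 50 µM Fe(II), 100 µM ascorbate, 0.25 mM NAD⁺, 0.25 U/mL FDH; ΔRFU over 30 min.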
# Potency is read from the fitted curve at half-maximal effect; tags tell the direction and shape of the fitted curve.
# Sequence of UniProt Q9UGL1 (Q9UGL1 whole entry, looked up): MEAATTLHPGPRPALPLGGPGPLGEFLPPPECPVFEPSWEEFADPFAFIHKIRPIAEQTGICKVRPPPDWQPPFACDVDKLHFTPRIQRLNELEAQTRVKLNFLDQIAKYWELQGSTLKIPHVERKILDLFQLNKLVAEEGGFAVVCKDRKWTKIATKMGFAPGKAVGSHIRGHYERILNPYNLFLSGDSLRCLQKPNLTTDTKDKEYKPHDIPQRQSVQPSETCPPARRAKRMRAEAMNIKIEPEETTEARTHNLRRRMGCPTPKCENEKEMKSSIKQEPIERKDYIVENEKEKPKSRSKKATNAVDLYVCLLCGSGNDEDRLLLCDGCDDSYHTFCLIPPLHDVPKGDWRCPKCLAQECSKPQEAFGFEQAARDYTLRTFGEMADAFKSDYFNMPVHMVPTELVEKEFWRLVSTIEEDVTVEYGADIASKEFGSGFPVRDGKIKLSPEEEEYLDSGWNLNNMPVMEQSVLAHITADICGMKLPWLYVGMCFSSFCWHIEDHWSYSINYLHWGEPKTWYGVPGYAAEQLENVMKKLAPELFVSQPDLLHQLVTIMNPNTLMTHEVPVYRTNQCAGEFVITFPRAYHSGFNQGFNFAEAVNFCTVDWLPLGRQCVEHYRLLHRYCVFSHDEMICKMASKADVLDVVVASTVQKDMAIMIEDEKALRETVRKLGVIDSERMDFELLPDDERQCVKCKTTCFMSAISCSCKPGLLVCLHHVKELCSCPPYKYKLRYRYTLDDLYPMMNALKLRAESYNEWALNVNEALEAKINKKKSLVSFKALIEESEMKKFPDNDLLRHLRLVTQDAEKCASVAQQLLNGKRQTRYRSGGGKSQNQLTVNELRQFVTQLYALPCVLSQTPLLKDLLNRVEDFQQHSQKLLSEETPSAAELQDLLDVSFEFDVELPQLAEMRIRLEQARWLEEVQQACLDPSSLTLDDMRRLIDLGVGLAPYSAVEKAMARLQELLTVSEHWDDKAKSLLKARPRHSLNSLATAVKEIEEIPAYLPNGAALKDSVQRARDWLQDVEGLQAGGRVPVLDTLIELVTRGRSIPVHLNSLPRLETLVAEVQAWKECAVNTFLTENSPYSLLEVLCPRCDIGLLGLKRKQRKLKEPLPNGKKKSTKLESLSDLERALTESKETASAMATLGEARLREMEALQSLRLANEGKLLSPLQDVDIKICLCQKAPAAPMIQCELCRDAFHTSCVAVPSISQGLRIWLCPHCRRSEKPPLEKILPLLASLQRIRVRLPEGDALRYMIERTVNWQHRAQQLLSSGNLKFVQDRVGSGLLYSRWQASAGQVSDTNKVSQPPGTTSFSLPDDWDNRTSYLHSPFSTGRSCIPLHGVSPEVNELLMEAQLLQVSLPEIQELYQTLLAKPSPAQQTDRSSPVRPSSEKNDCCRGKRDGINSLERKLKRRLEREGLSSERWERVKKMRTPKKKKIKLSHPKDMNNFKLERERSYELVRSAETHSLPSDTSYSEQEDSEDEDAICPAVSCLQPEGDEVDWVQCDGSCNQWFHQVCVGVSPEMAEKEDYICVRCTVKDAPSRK
Compound,"activity change, negative = inhibition",Potency
CCOCCOC(=O)COc1ccc2c(=O)c(-c3ccc(OC)c(OC)c3)c(C(F)(F)F)oc2c1,inactive: 13.9%,
COc1cc(/C=N\Nc2nc(-c3ccc(C)cc3)c(NC(C)=O)s2)ccc1O,,"inconclusive: 39.8 µM [inhibitor, partial curve, poor fit]"
COC(=O)C1=C(C)N=C2SC=C(CC(=O)N(C)Cc3ccco3)N2C1c1ccc(Cl)cc1 (stereo not drawn),,active: 17.8 µM
CCn1c(SC(C)C(=O)Nc2nc(C)c(C)s2)nnc1-c1ccc(F)cc1 (stereo not drawn),inactive: 2.12%,
O=C1CCN(Cc2ccncc2)CCCC(C(=O)NCCN2CCC(N3CCCCC3)CC2)CCN1 (stereo not drawn),inactive: -26.1%,
CC(C)c1nc2cc(NC3CCCCNC3=O)ccc2o1 (stereo not drawn),,"inconclusive: 22.4 µM [inhibitor, partial curve, poor fit]"
Cc1ccc(NC(=O)C(C#N)C(=O)c2ccc(C(C)(C)C)cc2)cc1 (stereo not drawn),inactive: 32.7%,
CC(C)c1noc(-c2cccn3c(CNC(=O)c4ccncc4)nnc23)n1,,"inconclusive: 15.8 µM [inhibitor, partial curve, poor fit]"
CC(C)NC(=O)c1ccc2c(c1)nc1n2CCN(CCO)C1,inactive: -2.32%,
CNC(=O)N1CCC(C2CCN(C(=O)c3ccc(OC)nc3)C2)CC1 (stereo not drawn),inactive: 2.94%,
O=C(COc1ccccc1F)Nc1ccc2nc(SCC(=O)N3CCCC3)sc2c1,,"inconclusive: 28.2 µM [inhibitor, single point]"
CCOc1cc(/C=C2\NC(=O)NC2=O)c(Br)cc1O,,inactive
Cc1nn(CCCC(=O)Nc2cccc(C(F)(F)F)c2)c(=O)c2nn(-c3ccccc3)c(C)c12,,"inconclusive: 25.1 µM [inhibitor, partial curve, poor fit]"
Cn1c([C@H]2CCN(C(=O)COCC(=O)O)C2)nc2ccccc21,,"inconclusive: 10 µM [inhibitor, partial curve, poor fit]"
CCC(=O)Nc1ccc(/C=C(\C(C)=O)C(=O)c2ccccc2)cc1,,"inconclusive: 14.1 µM [inhibitor, partial curve, poor fit]"
Cc1nn2c(c1-c1ccccc1N1CCCC1)N(C(=O)COc1ccccc1)CCC2,,active: 20 µM
CCOc1ccc(-c2nc(CSCC(=O)NCC(OCC)OCC)c(C)o2)cc1,inactive: -20.7%,
O=C1NC[C@@H](CCC(=O)N2CCOCC2)N2C[C@@H](NCc3ccc(F)cc3)C[C@@H]12,,"inconclusive: 35.5 µM [inhibitor, single point]"
Cc1cc(C)cc(N2CCC(NC(=O)c3ccc4nc[nH]c4c3)C2=O)c1 (stereo not drawn),inactive: -2.27%,
C/C=C/c1ccc(OCC(=O)OCC(=O)c2ccc3c(c2)OCO3)c(OC)c1,inactive: -2.63%,
CCOC(=O)c1cc(-c2ccccn2)nc2c1c(=O)[nH]c(=O)n2CC(C)C,,"inconclusive: 39.8 µM [inhibitor, single point]"
CCCCNC(=O)COC(=O)c1cc(-c2cccs2)nc2ccccc12,,"inconclusive: 20 µM [inhibitor, partial curve, poor fit]"
COc1ccc(C(=O)NCCn2cc(SCC(=O)Nc3ccc(F)cc3)c3ccccc32)cc1,,"inconclusive: 25.1 µM [inhibitor, single point]"

Compound,"activity change, negative = inhibition",Potency
COc1cccc(-c2cc(-c3cccs3)nc3c(C)noc23)c1,,"inconclusive: 35.5 µM [inhibitor, partial curve, poor fit]"
CSc1ccc(-c2noc(-c3nnn4c3COC(c3ccc(F)cc3)C4)n2)cc1 (stereo not drawn),inactive: 22.3%,
COc1cccc(-c2ccnc3nc(Cc4cc(F)cc(F)c4)nn23)c1,,active: 25.1 µM
CC1CCCCC1NC(=O)c1ccc2ccccc2n1 (stereo not drawn),inactive: 38.6%,
O=C(C1CC1)N1CC[C@](O)(c2ccccc2)[C@H](N2CCCC2)C1,,active: 15.8 µM
COc1ccc(C2=C(C)C(=NCc3ccc(OC(C)C)cc3)NS2(=O)=O)cc1,,"inconclusive: 35.5 µM [inhibitor, partial curve, poor fit]"
COc1cccc(NC(=O)O[C@@H]2CO[C@H]3[C@@H]2OC[C@@H]3Nc2nccc(-c3ccc4c(c3)OCO4)n2)c1,,"inconclusive: 31.6 µM [inhibitor, partial curve, poor fit]"
Cc1cc(-c2nccc3c(=O)cc(N4CCOCC4)oc23)ccn1,,"inconclusive: 35.5 µM [inhibitor, partial curve, poor fit]"
Cc1cc(NC(=O)COc2ccc3c(C)c(C)c(=O)oc3c2)no1,,"inconclusive: 28.2 µM [inhibitor, partial curve, poor fit]"
COCc1nc2ccccc2n1Cc1cccc(C)c1,,"inconclusive: 50.1 µM [inhibitor, single point]"
O=c1c2ccccc2n(Cc2c(F)cccc2Cl)c(=O)n1Cc1ccccc1,,"inconclusive: 28.2 µM [inhibitor, partial curve, poor fit]"
O=S(=O)(NCC(c1ccccc1)N1CCc2ccccc21)c1ccccc1 (stereo not drawn),,"inconclusive: 12.6 µM [inhibitor, partial curve, poor fit]"
CCn1c(=N)c(C(=O)NCC2CCCO2)cc2c(=O)n3cc(C)ccc3nc21 (stereo not drawn),,"inconclusive: 5.01 µM [inhibitor, full curve, poor fit]"
Cn1nc(C(=O)NCc2cccc(Cl)c2)c2ccccc2c1=O,inactive: -11.9%,
O=C(Nc1nccs1)C1CC(=O)N(c2n[nH]c3cc(Br)ccc23)C1 (stereo not drawn),,"inconclusive: 17.8 µM [inhibitor, partial curve]"
COc1ccc(CNC(=O)[C@@H]2Cc3c[nH]c4cccc(c34)[C@H](CC(C)C)N2)cc1,,"inconclusive: 44.7 µM [inhibitor, single point]"
COc1ccc(C(=O)N2CCN(C(=O)Cc3cc(OC)c(OC)c(OC)c3)CC2)cc1,inactive: -16.3%,
CN1CCN(c2cc(=O)c3ccnc(-c4ccc([S+](C)(=O)[O-])cc4)c3o2)CC1,,active: 31.6 µM
CC(C)C(O)C1CCN(c2nccc(-c3cc(C(=O)O)ccn3)n2)CC1 (stereo not drawn),,"inconclusive: 12.6 µM [inhibitor, single point]"
C=CCN(C)C(=O)C[C@@H]1c2nc(NC(=O)c3ccc(C(C)(C)C)cc3)sc2C[C@@H]2[C@](C)(CO)[C@H](O)CC[C@]21C,,active: 31.6 µM
Cn1nc(C(=O)N2CCOCC2)cc1C(=O)Nc1cccc(F)c1,inactive: 15.5%,
CCOC(=O)Cn1nc(C2CC2)c2c(C(F)F)cc(-c3cnn(C)c3C)nc21,,"inconclusive: 22.4 µM [inhibitor, partial curve, poor fit]"
CC(NC(=O)c1nccnc1N)c1ccc(F)c(F)c1 (stereo not drawn),,"inconclusive: 22.4 µM [inhibitor, partial curve, poor fit]"

Compound,"activity change, negative = inhibition",Potency
Cn1c(=O)c2c(nc(N3CCN(C(=O)/C=C/c4ccccc4)CC3)n2Cc2ccccc2)n(C)c1=O,inactive: -5.32%,
COc1ccc(/C=C(\C#N)C(=O)Nc2cccc(C(F)(F)F)c2)c(OC)c1,inactive: -3.31%,
Cc1ccc(NC(=O)Cn2c(=O)oc3cc(S(=O)(=O)N4CCCCC4)ccc32)c(C)c1,,"inconclusive: 35.5 µM [inhibitor, single point]"
CC(C)CN(C)C(=O)c1ccccc1-c1ncc(-c2ccccc2F)o1,,"inconclusive: 28.2 µM [inhibitor, partial curve, poor fit]"
NCc1cccc(NC(=O)c2ccncc2)c1,inactive: 0.505%,
CC(Sc1cccc2cccnc12)C(=O)NC(=O)NC1CC1 (stereo not drawn),,"inconclusive: 28.2 µM [inhibitor, single point]"
COCC(=O)N1CC[C@H](c2nnc(-c3ccc(C)cc3)o2)C1,inactive: -15.5% [at 86.2 µM],
O=[S+]([O-])(Nc1nncs1)c1ccc2c(c1)OCCN(Cc1nccs1)C2,,"inconclusive: 31.6 µM [inhibitor, single point]"
CC(C)NC(=O)c1cnc2c(c1)N(C(=O)Cc1ccc(C(C)C)cc1)CCC2,inactive: -16.1% [at 86.2 µM],
O=C(NCC1Cn2cccc2CN1Cc1ccccc1)c1ccc2cc[nH]c2c1 (stereo not drawn),,active: 25.1 µM
CC1CCCN(CCCNC(=O)c2cc3c(s2)CN(C2CCCC2)C3)C1 (stereo not drawn),,"inconclusive: 14.1 µM [inhibitor, single point]"
Cc1cc(NC(=O)CSc2ncc(-c3ccc(Cl)cc3)o2)ccc1F,inactive: 8.08%,
O=C(COc1ccc2ccc(=O)oc2c1)Nc1cccc2ccccc12,,"inconclusive: 28.2 µM [inhibitor, single point]"
CCCCC(C(=O)NC1CCCC1)N(C(=O)c1snc(C(N)=O)c1N)c1ccc(C)cc1 (stereo not drawn),,"inconclusive: 22.4 µM [inhibitor, partial curve, poor fit]"
COc1ccc(NC(=O)Nc2cc(-c3cn4cccnc4n3)ccc2OC)cc1,,"inconclusive: 3.16 µM [inhibitor, full curve, poor fit]"
O=C(Cc1ccc(Cl)cc1)NCc1nnc2ccc(-c3ccc(F)cc3)nn12,,active: 25.1 µM
COc1ccc(-c2cc(C(=O)NCCC(C)C)c3ccccc3n2)cc1,,"inconclusive: 35.5 µM [inhibitor, partial curve, poor fit]"
CCN(Cc1ccccc1)Cc1c(O)ccc2oc(C)c(C(=O)Nc3ccccc3C)c12,,"inconclusive: 15.8 µM [inhibitor, partial curve, poor fit]"
Cn1c2ccc(F)cc2c2ncn(Cc3ccccn3)c(=O)c21,,"inconclusive: 28.2 µM [inhibitor, partial curve, poor fit]"
c1ccc(CN2CC[C@@H]3COCCN(Cc4cccnc4)[C@@H]3C2)cc1,,"inconclusive: 25.1 µM [inhibitor, single point]"
C=CCOc1cccc(-c2nc(C(=O)NCC)cs2)c1,,"inconclusive: 28.2 µM [inhibitor, single point]"
COc1ccc(C(=O)NCCn2ccn3nc(-c4ccc(C)c(C)c4)cc3c2=O)cc1,,active: 17.8 µM
